A collection of fitness landscapes (doi:10.1126/science.1257360)
The other results are listed elsewhere or left out.

B1: PhoQ; a variant is named by its letters at X, in order, P23837 (parent)
chain: MKKLLRLFFPLSLRVRFLLATAAVVLVLSLAYGMVALIGYSVSFDKTTFRLLRGESNLFYTLAKWENNKLHVELPENIDKQSPTMTLIYDENGQLLWAQRDVPWLMKMIQPDWLKSNGFHEIEADVNDTSLLLSGDHSIQQQLQEVREDDDDAEMTHSVAVNVYPATSRMPKLTIVVVDTIPVELKSSYMVWSWFIYVLSANLLLVIPLLWVAAWWSLRPIEALAKEVRELEEHNRELLNPATTRELTSLVRNLNRLLKSERERYDKYRTTLTDLTHSLKTPLXXLQXXLRSLRSEKMSVSDAEPVMLEQISRISQQIGYYLHRASMRGGTLLSRELHPVAPLLDNLTSALNKVYQRKGVNISLDISPEISFVGEQNDFVEVMGNVLDNACKYCLEFVEISARQTDEHLYIVVEDDGPGIPLSKREVIFDRGQRVDTLRPGQGVGLAVAREITEQYEGKIVAGESMLGGARMEVIFGRQHSAPKDE

Variants of: B1
Assay: enrichment ratio after two sorts for PhoP signalling (ratio (wild type AVST 3.29)); higher = more functional
Details: with PhoP (E. coli)

Variant	enrichment ratio
TPLM	≤ 0.25
GVMT	≤ 0.25
TWVW	≤ 0.25
FYIN	≤ 0.25
REQT	5.8
HARE	≤ 0.25
IQEY	≤ 0.25
MYPN	≤ 0.25
LGVM	≤ 0.25
MIHS	0.755
LLED	≤ 0.25
NAGI	≤ 0.25
KYSR	≤ 0.25
WWEY	≤ 0.25
QTYV	3.91
HATS	≤ 0.25
LFKI	≤ 0.25
SYLL	0.392
NRQR	≤ 0.25
DNAQ	≤ 0.25
QRRR	≤ 0.25
SEVH	17.3
PGWP	≤ 0.25
FAAK	≤ 0.25

Variant	enrichment ratio
GVDR	≤ 0.25
IPLC	≤ 0.25
SLGG	2.77
DRPY	≤ 0.25
AWAI	≤ 0.25
MVIV	≤ 0.25
LDLV	≤ 0.25
YTTK	≤ 0.25
NQRH	≤ 0.25
AGMC	1.24
EYHG	≤ 0.25
SDHF	2.09
FKAP	≤ 0.25
VSQF	≤ 0.25
NSWQ	≤ 0.25
SWEI	≤ 0.25
RMCK	≤ 0.25
QIDN	≤ 0.25
HALR	≤ 0.25
VRCE	≤ 0.25
YHWS	≤ 0.25
GKMS	≤ 0.25
SADK	≤ 0.25
PRLK	≤ 0.25

Variant	enrichment ratio
SWRS	≤ 0.25
KHRE	≤ 0.25
WQSL	≤ 0.25
TAEF	≤ 0.25
KGGD	≤ 0.25
LVFI	≤ 0.25
FIRL	≤ 0.25
MLRV	≤ 0.25
TQWY	1.8
DAEA	0.279
KCVR	≤ 0.25
EFMD	≤ 0.25
LSIP	≤ 0.25
MFGT	≤ 0.25
DRVD	≤ 0.25
KTKK	≤ 0.25
WDIR	≤ 0.25
MKDA	≤ 0.25
FKAY	≤ 0.25
IPHR	≤ 0.25
DWHH	≤ 0.25
EHPV	≤ 0.25
MVVA	≤ 0.25
AGPT	≤ 0.25

Variant	enrichment ratio
IWYL	≤ 0.25
APNF	≤ 0.25
HTYP	≤ 0.25
SRFC	≤ 0.25
LVCL	≤ 0.25
ENDR	≤ 0.25
PNIH	≤ 0.25
VQED	≤ 0.25
FIFD	≤ 0.25
DCMY	≤ 0.25
HYMP	≤ 0.25
ADEF	≤ 0.25
ACYC	0.489
PHMM	≤ 0.25
RSIK	≤ 0.25
QQRD	≤ 0.25
RQLE	≤ 0.25
DYHQ	≤ 0.25
EMLK	≤ 0.25
FQPN	≤ 0.25
THDH	≤ 0.25
VERF	≤ 0.25
SDMM	1.67
AKYP	≤ 0.25

Variant	enrichment ratio
LQMY	≤ 0.25
QCNL	≤ 0.25
ETGS	≤ 0.25
PHED	≤ 0.25
INYH	1.2
WMID	≤ 0.25
GKNG	≤ 0.25
DFHH	≤ 0.25
NSAY	≤ 0.25
KVDR	≤ 0.25
FVRC	≤ 0.25
SGGF	1.06
YKFE	≤ 0.25
SRSP	≤ 0.25
TAKP	≤ 0.25
ETYM	≤ 0.25
LILT	≤ 0.25
EVFK	≤ 0.25
IVYA	≤ 0.25
APYG	≤ 0.25
SRIL	4.63
EQTC	≤ 0.25
NEWI	≤ 0.25
AQKT	≤ 0.25

Variant	enrichment ratio
DPGG	≤ 0.25
ILFE	≤ 0.25
EVTH	≤ 0.25
YLRS	≤ 0.25
FNPE	≤ 0.25
TAHC	5.41
TPND	≤ 0.25
DDHK	≤ 0.25
RKFQ	≤ 0.25
NMRI	≤ 0.25
LQGE	≤ 0.25
MMLG	≤ 0.25
KNKF	≤ 0.25
IQGW	≤ 0.25
EIFL	0.954
DSYV	≤ 0.25
FPFC	≤ 0.25
TVML	1.47
PNGF	≤ 0.25
PVCI	≤ 0.25
ALWI	≤ 0.25
WSFI	≤ 0.25
SIFE	≤ 0.25
SDSN	≤ 0.25

Variant	enrichment ratio
DCCS	≤ 0.25
GNDF	≤ 0.25
KLAA	≤ 0.25
DYDT	≤ 0.25
NHLF	≤ 0.25
SACP	≤ 0.25
EYVY	≤ 0.25
SDNA	≤ 0.25
NYCN	≤ 0.25
HCMK	≤ 0.25
TRGA	≤ 0.25
DVDP	≤ 0.25
VKEW	≤ 0.25
EMPW	≤ 0.25
AHEF	≤ 0.25
SRGF	0.392
YWFD	≤ 0.25
YSYD	≤ 0.25
VTQP	0.521
RRPW	≤ 0.25
RVQV	≤ 0.25
VELP	≤ 0.25
SRSF	≤ 0.25
IRVI	≤ 0.25

Variant	enrichment ratio
CMCV	≤ 0.25
FSIA	≤ 0.25
AWHE	≤ 0.25
YEDF	≤ 0.25
FIVY	≤ 0.25
TYLN	≤ 0.25
YWEC	≤ 0.25
IMWH	≤ 0.25
QYKS	≤ 0.25
VQNG	≤ 0.25
YHNY	≤ 0.25
PGSS	0.567
LLRS	≤ 0.25
HMKS	≤ 0.25
TQDR	≤ 0.25
TKIG	1.16
HHQC	≤ 0.25
WECC	≤ 0.25
NYAE	≤ 0.25
SDRM	≤ 0.25
FFWY	≤ 0.25
PFVS	≤ 0.25
NARD	≤ 0.25
ESGM	≤ 0.25

Variant	enrichment ratio
VFWW	≤ 0.25
RSTM	≤ 0.25
WEWN	≤ 0.25
FSLT	7.83
EFTT	≤ 0.25
EVKC	≤ 0.25
HCRK	≤ 0.25
RECP	≤ 0.25
DDYT	≤ 0.25
FFHQ	≤ 0.25
TTLI	12.4
WMML	≤ 0.25
QKKI	≤ 0.25
LVDK	≤ 0.25
YIME	≤ 0.25
NPNH	≤ 0.25
TSCF	9.88
TYYE	≤ 0.25
HCFN	≤ 0.25
NRYM	≤ 0.25
RMIE	≤ 0.25
AYHN	≤ 0.25
QTDW	≤ 0.25
KVMC	≤ 0.25

Variant	enrichment ratio
FMHI	≤ 0.25
GYGT	≤ 0.25
NQLT	≤ 0.25
AMRW	≤ 0.25
ETNM	≤ 0.25
AGCP	≤ 0.25
ADGT	≤ 0.25
YTTE	≤ 0.25
SNAI	22
AHLL	9.28
EMRS	≤ 0.25
MCHR	≤ 0.25
NEPH	≤ 0.25
HACM	≤ 0.25
ISVL	0.465
DEQW	≤ 0.25
NATG	≤ 0.25
NGSF	≤ 0.25
IRRP	≤ 0.25
CSEP	≤ 0.25
PQYY	≤ 0.25
NPFK	≤ 0.25
ERLW	≤ 0.25
PCLN	≤ 0.25

Variant	enrichment ratio
FEHT	≤ 0.25
VYCW	≤ 0.25
FSLF	4.86
FQPG	≤ 0.25
LWGN	≤ 0.25
STKG	≤ 0.25
MTKV	≤ 0.25
YKKQ	≤ 0.25
NQVA	≤ 0.25
RIYM	≤ 0.25
GLKD	≤ 0.25
SSWC	≤ 0.25
SYHV	≤ 0.25
AQMI	≤ 0.25
NHQL	≤ 0.25
MSGM	6.76
FPIL	≤ 0.25
ANHR	≤ 0.25
IGVG	≤ 0.25
LGHN	≤ 0.25
WEDR	≤ 0.25
NYIL	≤ 0.25
DCPF	≤ 0.25
RHKH	≤ 0.25

Variant	enrichment ratio
PRQT	≤ 0.25
STTA	4.08
IFGT	≤ 0.25
DLRC	≤ 0.25
QTGS	0.628
YRGP	≤ 0.25
FMRA	≤ 0.25
FNFI	≤ 0.25
PWTV	≤ 0.25
DFNY	≤ 0.25
SPNM	≤ 0.25
PVDQ	≤ 0.25
GEMD	≤ 0.25
GHHY	≤ 0.25
YDIL	≤ 0.25
NHQY	≤ 0.25
ACIH	1.36
YKGY	≤ 0.25
NIGV	≤ 0.25
NIAR	≤ 0.25
FRWQ	≤ 0.25
ENVH	≤ 0.25
WMCS	≤ 0.25
HHIQ	≤ 0.25

Variant	enrichment ratio
AASM	8.59
HRED	≤ 0.25
WKSC	≤ 0.25
AHCS	≤ 0.25
NKGD	≤ 0.25
DEIH	≤ 0.25
DHAS	≤ 0.25
EAWQ	≤ 0.25
KREV	≤ 0.25
AEEN	≤ 0.25
GHYN	≤ 0.25
TPAG	≤ 0.25
MHRK	≤ 0.25
TEYI	8.43
MITA	≤ 0.25
LCTP	≤ 0.25
TRWI	≤ 0.25
NKDD	≤ 0.25
